{
  "source": "patent US20210094999A1",
  "target": "insulin receptor-A on CHO-hIR cells (human)",
  "experiment": "cell-based or functional assay",
  "data": [
    {"binder": "N{Epsilon-B28}-17-carboxyheptadecanoyl-[GluA14,PheB5,GlyB26,LysB28],des-(B29-B30)-Insulin (ligand, here or on the partner: Lys B28: N-epsilon acylated with C18 diacid, no linker) chain 1: not shown chain 2: FVNQFLCGSHLVEALYLVCGERGFFGTK", "values": [
      {"measurement": "% maxERK/% maxAKT", "value": 0.26},
      {"measurement": "Elisa hIR pY1158 max (% of human insulin) (% of human insulin)", "value": 10}
    ]}
  ]
}
